{"source": "paper PMC6919601", "about": "“Identification of Plasmodium dipeptidyl aminopeptidase allosteric inhibitors by high throughput screening” (PLoS ONE, 2019)", "note": "Screen size: about 110,000 compounds; about 230 (0.21%) showed an effect of 50% or more. This is one part of the list.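 Also: 30 min substrate incubation versus DMSO and 10 µM JCP410 controls.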", "data": [{"biological_target": "DPAP1 (Plasmodium falciparum, UniProt Q8IIJ9)", "sequence (Q8IIJ9 whole entry, looked up)": "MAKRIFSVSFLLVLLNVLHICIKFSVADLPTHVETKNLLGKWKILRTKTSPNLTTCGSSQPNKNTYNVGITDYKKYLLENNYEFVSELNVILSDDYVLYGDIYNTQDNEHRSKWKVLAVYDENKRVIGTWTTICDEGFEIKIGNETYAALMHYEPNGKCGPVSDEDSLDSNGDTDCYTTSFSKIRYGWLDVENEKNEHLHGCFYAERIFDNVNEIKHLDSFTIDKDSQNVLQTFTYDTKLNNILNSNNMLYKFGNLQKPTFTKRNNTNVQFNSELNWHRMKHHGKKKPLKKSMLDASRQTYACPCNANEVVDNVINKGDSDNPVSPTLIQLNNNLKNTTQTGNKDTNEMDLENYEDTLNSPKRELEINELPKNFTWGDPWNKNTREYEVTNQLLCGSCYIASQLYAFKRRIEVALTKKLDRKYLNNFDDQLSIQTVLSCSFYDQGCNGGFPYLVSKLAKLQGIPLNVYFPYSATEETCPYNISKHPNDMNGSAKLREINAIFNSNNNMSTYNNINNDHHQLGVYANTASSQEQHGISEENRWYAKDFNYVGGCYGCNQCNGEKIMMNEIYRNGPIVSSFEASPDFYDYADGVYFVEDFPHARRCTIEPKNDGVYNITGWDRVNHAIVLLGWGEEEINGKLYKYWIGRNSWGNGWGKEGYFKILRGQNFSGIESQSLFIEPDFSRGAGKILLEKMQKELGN", "assay": "primary screen, percent inhibition; read by cleavage of a fluorogenic dipeptide substrate; higher = more effect of the substance", "parameters": "species or system P. falciparum D10 trophozoite lysates; single well", "units": {"% Inhibition @ 10 uM": "%"}, "values": [{"molecule": "O=C(c1ccccc1)N1CCN(C(=O)C2CC2)CC1", "% Inhibition @ 10 uM": 1.03}, {"molecule": "CCn1cc2nc(SCC(=O)NCc3ccccc3Cl)n(CCc3ccccc3)c(=O)c2n1", "% Inhibition @ 10 uM": -3.79}, {"molecule": "CCOCCCN1CC(C(=O)NCc2ccc3c(c2)OCO3)CC1=O", "note": "(centres unmarked)", "% Inhibition @ 10 uM": -2.99}, {"molecule": "Cc1cccc(C)c1NC(=O)COc1ccccc1", "% Inhibition @ 10 uM": 1.44}, {"molecule": "CC(C)CN(CC(C)C)C(=O)C(CC1CCCCC1)C(=O)NCC#N", "note": "(centres unmarked)", "% Inhibition @ 10 uM": -0.214}, {"molecule": "COC(=O)c1ccc(-c2ccco2)n1Cc1ccc(Cl)cc1", "% Inhibition @ 10 uM": 1.22}, {"molecule": "Brc1ccc(CN2CCN(Cc3ccccc3)CC2)s1", "% Inhibition @ 10 uM": -3.13}, {"molecule": "CCCn1c2ccccc2c2cnn(CC(=O)N(C)Cc3ccccc3)c(=O)c21", "% Inhibition @ 10 uM": 6.14}, {"molecule": "Cc1c(CC(C)C)nc(N)c(C#N)c1-c1ccccc1", "% Inhibition @ 10 uM": 99.3}, {"molecule": "O=C(Cn1ncc2c3ccccc3nc-2c1O)N(Cc1ccccc1)Cc1cccs1", "% Inhibition @ 10 uM": 0.231}, {"molecule": "Cc1ccc(CNC(=O)c2c(C)cc(=O)oc2C)cc1", "% Inhibition @ 10 uM": -2.26}, {"molecule": "COc1ccc(NC(=O)C23CC4CC(C2)CC(n2cnc(Br)n2)(C4)C3)c(OC)c1", "% Inhibition @ 10 uM": 0.431}, {"molecule": "COc1ccc(-c2noc(CCC(=O)N3CCN(Cc4ccccc4)CC3)n2)cc1", "% Inhibition @ 10 uM": 0.402}, {"molecule": "N#C/C(=C/c1ccc(Cl)cc1)NC(=O)c1ccccc1", "% Inhibition @ 10 uM": -3.26}, {"molecule": "CC(Sc1nnc(COc2ccc(Br)cc2)n1-c1ccccc1)C(=O)O", "note": "(centres unmarked)", "% Inhibition @ 10 uM": -5.15}, {"molecule": "COc1ccc(-c2noc(CN(C(=O)c3cccs3)C3CCCCC3)n2)cc1", "% Inhibition @ 10 uM": 0.486}, {"molecule": "COc1ccc2c(c1)OCC/C2=N/OC(=O)c1ccc(C)cc1", "% Inhibition @ 10 uM": -6.69}, {"molecule": "CC(=O)c1ccc2[nH]c3ccccc3c2c1", "% Inhibition @ 10 uM": -3.48}, {"molecule": "c1ccc2c(c1)N1CCCN=C1N2CCN1CCOCC1", "% Inhibition @ 10 uM": -5.16}, {"molecule": "O[C@@]1(c2ccccc2)CCN[C@H]2CCCC[C@@H]21", "% Inhibition @ 10 uM": -4.61}, {"molecule": "Cc1ccc(CNC(=O)CCS(=O)(=O)Cc2ccc(C)cc2)cc1", "% Inhibition @ 10 uM": -1.21}, {"molecule": "Cc1cc(-n2nc(C)cc2C)nc(-c2ccccc2O)n1", "% Inhibition @ 10 uM": -0.736}, {"molecule": "COc1cc2c(cc1C)/C(=N/OC(=O)c1cc(OC)c(OC)c(OC)c1)CCC2", "% Inhibition @ 10 uM": 3.16}, {"molecule": "CCOc1cccc(C(=O)Nc2ccc(-c3nc4ccccc4[nH]3)cc2)c1", "% Inhibition @ 10 uM": 4.44}, {"molecule": "O=C(NCCc1ccc(Cl)cc1)C12CC3CC(CC(C3)C1)C2", "% Inhibition @ 10 uM": 1.76}, {"molecule": "Cc1cccc(C(=N)NOC(=O)c2ccc3c(c2)OCO3)c1", "% Inhibition @ 10 uM": -9.83}, {"molecule": "CC(C)=Cc1ccc2c(N)c(C#N)sc2n1", "% Inhibition @ 10 uM": -1.96}, {"molecule": "COc1ccccc1Nc1nc(N)nc(CSc2nccn2C)n1", "% Inhibition @ 10 uM": 3.92}, {"molecule": "COc1ccc2sc(N(CCN(C)C)C(=O)c3ccc4ncsc4c3)nc2c1", "% Inhibition @ 10 uM": -1.41}, {"molecule": "COc1ccc(C2CC(O)=C/C(=N/c3ccc(Cl)cc3)C2)cc1", "note": "(centres unmarked)", "% Inhibition @ 10 uM": 3.19}, {"molecule": "CCCn1c(C)c(C(=O)OCc2ccccc2)c2cc(O)ccc21", "% Inhibition @ 10 uM": -3.13}, {"molecule": "c1ccc(CCCN2CCN(c3ccccc3)CC2)cc1", "% Inhibition @ 10 uM": 1.26}, {"molecule": "CC1CCN(c2ncnc3ccccc23)CC1", "% Inhibition @ 10 uM": -3.01}, {"molecule": "Cc1ccc(C(=O)Nc2sc(C)c(C)c2C(=O)OC(C)C)o1", "% Inhibition @ 10 uM": 1.64}, {"molecule": "N#CCNC(=O)[C@H](Cc1cc(I)c(O)c(I)c1)NC(=O)c1ccc(OC(F)(F)F)cc1", "% Inhibition @ 10 uM": -3.04}, {"molecule": "N#CC1=C(N)C2=CCCC[C@H]2[C@H](c2cccnc2)C1(C#N)C#N", "% Inhibition @ 10 uM": 19.6}, {"molecule": "COC(=O)C1=C(C)N(CCc2ccc(OC)c(OC)c2)C(=O)C1", "% Inhibition @ 10 uM": 6.89}, {"molecule": "CC1CN(Cc2ccc(F)c(Br)c2)CC(C)O1", "note": "(centres unmarked)", "% Inhibition @ 10 uM": 1.87}, {"molecule": "CC(=O)c1ccc(N2CCN(Cc3ccccc3C)CC2)cc1", "% Inhibition @ 10 uM": 1.87}, {"molecule": "CCC1CCCCN1C(=O)CSc1nnc(-c2ccccc2)o1", "note": "(centres unmarked)", "% Inhibition @ 10 uM": -0.999}, {"molecule": "CCCNC(=O)CCCN1C(=O)c2ccccc2Sc2ncccc21", "% Inhibition @ 10 uM": 6.66}, {"molecule": "CCOC(=O)C1CCCCN1Cc1cc(Br)cs1", "note": "(centres unmarked)", "% Inhibition @ 10 uM": 4.04}, {"molecule": "COc1ccc(CCNc2nc3c(c(=O)[nH]c(=O)n3C)n2CCC#N)cc1OC", "% Inhibition @ 10 uM": -1.76}, {"molecule": "COc1ccc(C(NC(=O)C(C)C)c2ccc3cccnc3c2O)cc1OC", "note": "(centres unmarked)", "% Inhibition @ 10 uM": -3.23}, {"molecule": "Cc1cccc(N2C(=O)c3ccc(C(=O)O)cc3C2=O)c1C", "% Inhibition @ 10 uM": 0.843}, {"molecule": "CCOc1ccc(N(CC(=O)OC)S(=O)(=O)c2ccccc2)cc1", "% Inhibition @ 10 uM": -0.216}, {"molecule": "COc1ccc2nc(NC(=O)Cn3nc(C)n4cccc4c3=O)sc2c1", "% Inhibition @ 10 uM": -4.43}, {"molecule": "Cc1nn(CC(=O)NCCc2ccc(Cl)cc2)c(=O)c2cccn12", "% Inhibition @ 10 uM": -6.99}, {"molecule": "CCCn1c(SCC(O)c2ccc(OC)cc2)nc2ccccc21", "note": "(centres unmarked)", "% Inhibition @ 10 uM": 3.66}, {"molecule": "Cc1cc(C(=O)N2C(C)COCC2C)c(C)o1", "note": "(centres unmarked)", "% Inhibition @ 10 uM": -1.91}, {"molecule": "CCCNC(=O)c1cc2sc(Cl)cc2n1CC", "% Inhibition @ 10 uM": -3.08}, {"molecule": "CC(C)NS(=O)(=O)c1ccc(OCC(=O)NCCO)cc1", "% Inhibition @ 10 uM": -1.41}, {"molecule": "CN1C(=O)c2ccccc2C(C(=O)NCCN2CCc3ccccc3C2)C1c1cn(C)c2ccccc12", "note": "(centres unmarked)", "% Inhibition @ 10 uM": -7.27}, {"molecule": "Cc1nc2c(C(=O)NCc3ccc4c(c3)OCO4)cnn2c(C)c1Cc1ccc(F)cc1Cl", "% Inhibition @ 10 uM": 1.27}, {"molecule": "CC(C)CCCC(C)NC(=O)c1ccc(Br)o1", "note": "(centres unmarked)", "% Inhibition @ 10 uM": 0.214}, {"molecule": "COc1ccc(CN(Cc2ccccc2)S(=O)(=O)c2ccc(-n3cnnn3)c(C)c2)cc1", "% Inhibition @ 10 uM": 2.08}, {"molecule": "COCCCn1c2c(c(=O)[nH]c1=O)C(c1ccc(C)cc1)C1=C(O)c3ccccc3C1=N2", "note": "(centres unmarked)", "% Inhibition @ 10 uM": -2.75}, {"molecule": "CCCOc1ccc(C(=O)CCNC(C(=O)O)C(C)C)cc1", "note": "(centres unmarked)", "% Inhibition @ 10 uM": 2.8}, {"molecule": "Cn1nnnc1SCCCNCc1ccc(OCc2ccccc2Cl)cc1", "% Inhibition @ 10 uM": -1.11}, {"molecule": "O=c1c2c3c(sc2[nH]c(=S)n1C1CCCCC1)CCCC3", "% Inhibition @ 10 uM": 9.26}, {"molecule": "O=C(CN1C(=O)c2ccccc2C1=O)N1CCN(C(c2ccccc2)c2ccc(Cl)cc2)CC1", "note": "(centres unmarked)", "% Inhibition @ 10 uM": -0.357}, {"molecule": "Cc1coc2c1c(C)cc1oc(=O)c(CC(=O)NCc3ccc(F)cc3)c(C)c12", "% Inhibition @ 10 uM": -0.808}, {"molecule": "Cc1scc(CN2CCC3(CC2)OCCO3)c1C", "% Inhibition @ 10 uM": -6.05}, {"molecule": "O=C(Nc1ccc(CN2CCCCC2)cc1)c1cc2nc(C(F)F)cc(C(F)F)n2n1", "% Inhibition @ 10 uM": 5.61}, {"molecule": "CCn1c(C(=O)N2CCC(C(=O)NCCc3c[nH]c4ccccc34)CC2)cc2sccc21", "% Inhibition @ 10 uM": 3.4}]}]}
